The values that follow are results of earlier work, collected in PubChem BioAssay AID1259409 (Chemical Carcinogenesis Research Information System (CCRIS), 2018).

The source gives many values for each of these; only a part stands here.

For the series, the system named is rodent chemically induced tumor inhibition, incidence and multiplicity. The series is described as follows: CCRIS tumor inhibitor studies. The note with it: Species: RAT, Promoter: NONE USED. The source says: The CCRIS database contains chemical records with carcinogenicity, mutagenicity, tumor promotion, and tumor inhibition test results. It was developed by the National Cancer Institute (NCI). Data are derived from studies cited in primary journals, current awareness tools, NCI reports, and other sources. Test results have been reviewed by experts in carcinogenesis and mutagenesis.
CCRIS provides historical information from the years 1985 - 2011. It is no longer updated.
This is an archive assay for CCRIS tumor inhibitor studies.

In the case of `O=[Se](O)O`, the “tumour outcome (control, treated, inhibition, significance)” value by setting is: (Carcinogen: AZOXYMETHANE, 25843-45-2, Carcinogen: AZOXYMETHANE, 25843-45-2, Dose [Inhibitor]: 2 PPM IN DRINKING WATER DAILY STARTING SIMULTANEOUSLY WITH CARCINOGEN TREATMENT AND CONTINUING THROUGH END OF STUDY (STU, Dose [Inhibitor]: 2 PPM IN DRINKING WATER DAILY STARTING SIMULTANEOUSLY WITH CARCINOGEN TREATMENT AND CONTINUING THROUGH END OF STUDY (STU, Route [Inhibitor]: ORAL, Strain/Sex: SPRAGUE-DAWLEY/MALE, Target Tissue: Type of Lesion: LARGE INTESTINE: MALIGNANT TUMOR, Dose [Carcinogen]: 8 MG/KG BW IN AQUEOUS SOLUTION 1/WK FOR 8 WK) 90%, 93%, -3%, not significant; (Carcinogen: AZOXYMETHANE, 25843-45-2, Carcinogen: AZOXYMETHANE, 25843-45-2, Dose [Inhibitor]: 2 PPM IN DRINKING WATER DAILY STARTING SIMULTANEOUSLY WITH CARCINOGEN TREATMENT AND CONTINUING THROUGH END OF STUDY (STU, Dose [Inhibitor]: 2 PPM IN DRINKING WATER DAILY STARTING SIMULTANEOUSLY WITH CARCINOGEN TREATMENT AND CONTINUING THROUGH END OF STUDY (STU, Route [Inhibitor]: ORAL, Strain/Sex: SPRAGUE-DAWLEY/MALE, Target Tissue: Type of Lesion: SMALL INTESTINE: MALIGNANT TUMOR, Dose [Carcinogen]: 8 MG/KG BW IN AQUEOUS SOLUTION 1/WK FOR 8 WK) 90%, 93%, -3%, not significant; (Carcinogen: N-METHYL-N-NITROSOUREA, 684-9-35, Carcinogen: N-METHYL-N-NITROSOUREA, 684-9-35, Dose [Inhibitor]: 4 PPM IN DRINKING WATER DAILY FOR 10 MO STARTING SIMULTANEOUSLY WITH CARCINOGEN TREATMENT (STUDY DURATION: 10 MO), Dose [Inhibitor]: 4 PPM IN DRINKING WATER DAILY FOR 10 MO STARTING SIMULTANEOUSLY WITH CARCINOGEN TREATMENT (STUDY DURATION: 10 MO), Route [Inhibitor]: ORAL, Strain/Sex: WE/FEMALE, Target Tissue: Type of Lesion: BRAIN AND SPINAL CORD: NEOPLASM, Dose [Carcinogen]: 20 MG/KG BW ONCE EVERY 4 WK FOR 40 WK) 7/20 (35%), 10/23 (43%), -23%, not significant; (Carcinogen: N-METHYL-N-NITROSOUREA, 684-9-35, Carcinogen: N-METHYL-N-NITROSOUREA, 684-9-35, Dose [Inhibitor]: 4 PPM IN DRINKING WATER DAILY FOR 10 MO STARTING SIMULTANEOUSLY WITH CARCINOGEN TREATMENT (STUDY DURATION: 10 MO), Dose [Inhibitor]: 4 PPM IN DRINKING WATER DAILY FOR 10 MO STARTING SIMULTANEOUSLY WITH CARCINOGEN TREATMENT (STUDY DURATION: 10 MO), Route [Inhibitor]: ORAL, Strain/Sex: WE/FEMALE, Target Tissue: Type of Lesion: FORESTOMACH: NEOPLASM, Dose [Carcinogen]: 20 MG/KG BW ONCE EVERY 4 WK FOR 40 WK) 19/20 (95%), 22/23 (96%), -1%, not significant; (Carcinogen: N-METHYL-N-NITROSOUREA, 684-9-35, Carcinogen: N-METHYL-N-NITROSOUREA, 684-9-35, Dose [Inhibitor]: 4 PPM IN DRINKING WATER DAILY FOR 10 MO STARTING SIMULTANEOUSLY WITH CARCINOGEN TREATMENT (STUDY DURATION: 10 MO), Dose [Inhibitor]: 4 PPM IN DRINKING WATER DAILY FOR 10 MO STARTING SIMULTANEOUSLY WITH CARCINOGEN TREATMENT (STUDY DURATION: 10 MO), Route [Inhibitor]: ORAL, Strain/Sex: WE/FEMALE, Target Tissue: Type of Lesion: HEART: NEUROGENIC SARCOMA, Dose [Carcinogen]: 20 MG/KG BW ONCE EVERY 4 WK FOR 40 WK) 7/20 (35%), 9/23 (39%), -11%, not significant; (Carcinogen: N-METHYL-N-NITROSOUREA, 684-9-35, Carcinogen: N-METHYL-N-NITROSOUREA, 684-9-35, Dose [Inhibitor]: 4 PPM IN DRINKING WATER DAILY FOR 10 MO STARTING SIMULTANEOUSLY WITH CARCINOGEN TREATMENT (STUDY DURATION: 10 MO), Dose [Inhibitor]: 4 PPM IN DRINKING WATER DAILY FOR 10 MO STARTING SIMULTANEOUSLY WITH CARCINOGEN TREATMENT (STUDY DURATION: 10 MO), Route [Inhibitor]: ORAL, Strain/Sex: WE/FEMALE, Target Tissue: Type of Lesion: MAMMARY GLAND: NEOPLASM, Dose [Carcinogen]: 20 MG/KG BW ONCE EVERY 4 WK FOR 40 WK) 15/20 (75%), 15/23 (65%), 13%, not significant. For the same compound, the “tumour outcome (control, treated, inhibition, significance)” value by setting is: (Carcinogen: N-METHYL-N-NITROSOUREA, 684-9-35, Carcinogen: N-METHYL-N-NITROSOUREA, 684-9-35, Dose [Inhibitor]: 4 PPM IN DRINKING WATER DAILY FOR 10 MO STARTING SIMULTANEOUSLY WITH CARCINOGEN TREATMENT (STUDY DURATION: 10 MO), Dose [Inhibitor]: 4 PPM IN DRINKING WATER DAILY FOR 10 MO STARTING SIMULTANEOUSLY WITH CARCINOGEN TREATMENT (STUDY DURATION: 10 MO), Route [Inhibitor]: ORAL, Strain/Sex: WE/FEMALE, Target Tissue: Type of Lesion: PERIPHERAL NERVES: NEOPLASM, Dose [Carcinogen]: 20 MG/KG BW ONCE EVERY 4 WK FOR 40 WK) 6/20 (30%), 2/23 (9%), 70%, not significant; (Carcinogen: N-METHYL-N-NITROSOUREA, 684-9-35, Carcinogen: N-METHYL-N-NITROSOUREA, 684-9-35, Dose [Inhibitor]: 4 PPM IN DRINKING WATER DAILY FOR 10 MO STARTING SIMULTANEOUSLY WITH CARCINOGEN TREATMENT (STUDY DURATION: 10 MO), Dose [Inhibitor]: 4 PPM IN DRINKING WATER DAILY FOR 10 MO STARTING SIMULTANEOUSLY WITH CARCINOGEN TREATMENT (STUDY DURATION: 10 MO), Route [Inhibitor]: ORAL, Strain/Sex: WE/MALE, Target Tissue: Type of Lesion: HEART: NEUROGENIC SARCOMA, Dose [Carcinogen]: 20 MG/KG BW ONCE EVERY 4 WK FOR 40 WK) 4/15 (27%), 7/16 (44%), -63%, not significant; (Carcinogen: N-METHYL-N-NITROSOUREA, 684-93-5, Carcinogen: N-METHYL-N-NITROSOUREA, 684-93-5, Dose [Inhibitor]: 4 MG/KG OF DIET DAILY STARTING 7 D AFTER CARCINOGEN TREATMENT AND CONTINUING FOR DURATION OF STUDY (STUDY DURATION: 130, Dose [Inhibitor]: 4 MG/KG OF DIET DAILY STARTING 7 D AFTER CARCINOGEN TREATMENT AND CONTINUING FOR DURATION OF STUDY (STUDY DURATION: 130, Route [Inhibitor]: ORAL, Strain/Sex: SPRAGUE-DAWLEY/FEMALE, Target Tissue: Type of Lesion: MAMMARY GLAND: ADENOCARCINOMA, Dose [Carcinogen]: 50 MG/KG BW IN 0.9% SALINE ONCE AT 50 D OF AGE) 25/25 (100%), 25/25 (100%), 0%, not significant; (Carcinogen: N-METHYL-N-NITROSOUREA, 684-93-5, Carcinogen: N-METHYL-N-NITROSOUREA, 684-93-5, Dose [Inhibitor]: 4 PPM IN DIET DAILY FOR 128 D STARTING 7 D AFTER CARCINOGEN TREATMENT AND CONTINUING FOR DURATION OF STUDY (STUDY DURATI, Dose [Inhibitor]: 4 PPM IN DIET DAILY FOR 128 D STARTING 7 D AFTER CARCINOGEN TREATMENT AND CONTINUING FOR DURATION OF STUDY (STUDY DURATI, Route [Inhibitor]: ORAL, Strain/Sex: SPRAGUE-DAWLEY/FEMALE, Target Tissue: Type of Lesion: MAMMARY GLAND: CARCINOMA, Dose [Carcinogen]: 50 MG/KG BW IN ACIDIFIED SALINE (PH 4.0) ONCE AT 50 D OF AGE) 90%, 90%, 0%, not significant; (Carcinogen: N-METHYL-N-NITROSOUREA, 684-93-5, Carcinogen: N-METHYL-N-NITROSOUREA, 684-93-5, Dose [Inhibitor]: 5 PPM IN DIET DAILY FOR 128 D STARTING 7 D AFTER CARCINOGEN TREATMENT AND CONTINUING FOR DURATION OF STUDY (STUDY DURATI, Dose [Inhibitor]: 5 PPM IN DIET DAILY FOR 128 D STARTING 7 D AFTER CARCINOGEN TREATMENT AND CONTINUING FOR DURATION OF STUDY (STUDY DURATI, Route [Inhibitor]: ORAL, Strain/Sex: SPRAGUE-DAWLEY/FEMALE, Target Tissue: Type of Lesion: MAMMARY GLAND: CARCINOMA, Dose [Carcinogen]: 50 MG/KG BW IN ACIDIFIED SALINE (PH 4.0) ONCE AT 50 D OF AGE) 90%, 95%, -6%, not significant; (Carcinogen: N-METHYL-N-NITROSOUREA, 684-93-5, Carcinogen: N-METHYL-N-NITROSOUREA, 684-93-5, Dose [Inhibitor]: 6 PPM IN DIET DAILY FOR 128 D STARTING 7 D AFTER CARCINOGEN TREATMENT AND CONTINUING FOR DURATION OF STUDY (STUDY DURATI, Dose [Inhibitor]: 6 PPM IN DIET DAILY FOR 128 D STARTING 7 D AFTER CARCINOGEN TREATMENT AND CONTINUING FOR DURATION OF STUDY (STUDY DURATI, Route [Inhibitor]: ORAL, Strain/Sex: SPRAGUE-DAWLEY/FEMALE, Target Tissue: Type of Lesion: MAMMARY GLAND: CARCINOMA, Dose [Carcinogen]: 50 MG/KG BW IN ACIDIFIED SALINE (PH 4.0) ONCE AT 50 D OF AGE) 90%, 90%, 0%, not significant. Moreover, the “tumour outcome (control, treated, inhibition, significance)” value is recorded as 12/29 (41%), 8/30 (27%), 34%, not calculated (Carcinogen: N-NITROSOBIS(2-OXOPROPYL)AMINE, 60599-38-4, Carcinogen: N-NITROSOBIS(2-OXOPROPYL)AMINE, 60599-38-4, Dose [Inhibitor]: 2 PPM IN DIET DAILY FOR 51 WK STARTING 1 WK BEFORE START OF CARCINOGEN TREATMENT AND CONTINUING FOR DURATION OF STUDY (S, Dose [Inhibitor]: 2 PPM IN DIET DAILY FOR 51 WK STARTING 1 WK BEFORE START OF CARCINOGEN TREATMENT AND CONTINUING FOR DURATION OF STUDY (S, Route [Inhibitor]: ORAL, Strain/Sex: MRC/MALE, Target Tissue: Type of Lesion: COLON: ADENOCARCINOMA, Dose [Carcinogen]: 5 MG/KG BW IN 0.9% SALINE 1/WK FOR 50 WK) and 4/29 (14%), 0/30 (0%), 100%, p<0.05 (Carcinogen: N-NITROSOBIS(2-OXOPROPYL)AMINE, 60599-38-4, Carcinogen: N-NITROSOBIS(2-OXOPROPYL)AMINE, 60599-38-4, Dose [Inhibitor]: 2 PPM IN DIET DAILY FOR 51 WK STARTING 1 WK BEFORE START OF CARCINOGEN TREATMENT AND CONTINUING FOR DURATION OF STUDY (S, Dose [Inhibitor]: 2 PPM IN DIET DAILY FOR 51 WK STARTING 1 WK BEFORE START OF CARCINOGEN TREATMENT AND CONTINUING FOR DURATION OF STUDY (S, Route [Inhibitor]: ORAL, Strain/Sex: MRC/MALE, Target Tissue: Type of Lesion: LUNG: ADENOCARCINOMA, Dose [Carcinogen]: 5 MG/KG BW IN 0.9% SALINE 1/WK FOR 50 WK).
